# Results: PubChem BioAssay AID686978 (National Center for Advancing Translational Sciences (NCATS), 2013)
# About 64,000 (15%) of roughly 420,000 compounds were called active. This list was built around the results that the source calls inconclusive (neither active nor inactive); the mix of calls is not that of the screen. Calls follow the shape of the dose curve; as a rule, active = well fitted inhibition curve with a large enough effect; inconclusive = small, poorly fitted or top-dose-only effect; inactive = flat fitted curve, though single readings scatter. No potency is given beside an inconclusive call; the fits are too rough.
# Assay: qHTS for Inhibitors of human tyrosyl-DNA phosphodiesterase 1 (TDP1): qHTS in cells in absence of CPT; also: nearly all actives have a fitted effect of over 55% in size
# Details: DT40 Tdp1-/- hTDP1 cells, no CPT, ATP luminescence, 48 h; activity change, negative = growth inhibition: at 46.2 µM (top of the series)
# How it was run: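 Compound effects on proliferation are scored in DT40 Tdp1-/-;hTDP1 cells in the absence of CPT. ATP levels (CellTiter-Glo luminescence) are recorded after a ≥48 hr, 37 °C incubation.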
# % is scaled to controls: 0 for no effect and ±100 for the full control effect; potency is read from the fitted curve at half-maximal effect; tags tell the direction and shape of the fitted curve.
Compound,Potency,"activity change, negative = growth inhibition"
CCCN(C(=O)Cn1ncc2c1-c1ccccc1OC2)c1cccc(C)c1,active: 16.4 µM,
O/N=C/c1ccc(-c2ccccc2OC(F)(F)F)o1,"inconclusive [inhibitor, single point]",
C[n+]1cc[nH]c1SCC(=O)c1ccccc1,,inactive: -5.25%
CCOC(=O)c1c(NC(=O)C2=C(C)NC(=S)NC2c2ccccc2C(F)(F)F)sc(C)c1C (configuration not stated),"inconclusive [inhibitor, single point]",
Cc1cccc(C)c1NC(=O)Cn1c(=O)n(CCCS(=O)(=O)C2CCCCC2)c(=O)c2ccccc21,"inconclusive [inhibitor, partial curve]",
CCc1ccc(-c2nc(SCC(=O)NCC3CCCO3)c(-c3ccc(C)cc3)[nH]2)cc1 (configuration not stated),"inconclusive [inhibitor, single point]",
O=C(Nc1ccc2c(c1)OCCO2)c1ccc(Br)c(S(=O)(=O)N2CCOCC2)c1,"inconclusive [inhibitor, single point]",
FC(F)(F)c1ccc(CSc2nccn2-c2ccccc2)cc1,"inconclusive [inhibitor, single point]",
Cc1cccc(N2CCN(c3ccc(C(=O)O)cc3NC(=O)c3cccc(Cl)c3)CC2C)c1 (configuration not stated),"inconclusive [inhibitor, single point]",
CN1CCN(C(=O)C2=C[C@@H](c3ccc(C(F)(F)F)cc3)C[C@@H](OCc3ccc(CO)cc3)O2)CC1,"inconclusive [inhibitor, single point]",
CN1C[C@@H]2[C@@H]3C(=O)N(Cc4ccccc4)C(=O)[C@@H]3[C@](Cc3ccccc3)(C1=O)N2C(=O)c1ccc(C(F)(F)F)cc1,"inconclusive [inhibitor, single point]",
COc1ccc(/C=C/C(=O)N2CCN(S(=O)(=O)c3ccccc3)CC2)cc1OC,"inconclusive [inhibitor, partial curve]",
Cc1cccc(C(=O)NC(=S)NNC(=O)COc2c(C)cccc2C)c1,"inconclusive [inhibitor, single point]",
CSCC[C@@H](C(=O)Nc1cccc(F)c1)N1Cc2ccccc2C1=O,"inconclusive [inhibitor, partial curve]",
O=C(CSc1nccn1C1CCCC1)Nc1cccc(F)c1,,inactive: -21.1%
COc1ccc(CCNC(=O)c2nc(SCc3ccccc3F)ncc2Cl)cc1OC,active: 23.1 µM,
CCOC(=O)C1CCN(c2c(C(=O)c3ccc(OC)cc3)cnc3ccccc23)CC1,active: 16.4 µM,
